Assay: soluble on expression in E. coli; label from the status in PepcDB or PDB records

Row | Sequence | soluble on expression in E. coli
1 | GASCDSFNEDLPECRLSVKFKYDYNMEFADAFHAQVDKVELYVFDKNGKYLFKQAEEGSALSTGNYLMEVELPVGQYQFMAWAGARDSYDITSLTPGVSTLTDLKLKLKREASLIINKRMETLWYGEVINVNFDGTVHQTETINLIRDTKIVRFGFQSYTGSWTLDMNDYDYEIIESNGHLGHDNSLLDDDVLSFRPYYMEQKDPATAYVDMNTMRLMEDRKTRLVLTEKASGKRVFDINLIDYLAMTNAEGKNLSTQEYLDRQSNYHIIFFLSESWLAVQIVVNGWVHRIQEENQ | soluble
2 | MSLTNLDFHIVKRIRQRIAQGGDNAALKHKQNGQWQAINWHQFGEQLDELSMALLAQGIGVQDKIAIFSNNMPRWTIADFAALQIRAVTVPIYPTNTPEQAAYILQNADVKVVFVGEQAQFDAALSQFEQCPELRLIVAMNANIDLKQASCAMHWDEFVAQSHHQDRAPLDALIEQANYDDLFTLIYTSGTTGTPKGVMLDYRNIGAQLEGHDQRLNLTQEDVSLCFLPLSHVFERAWTAYVLYKGATNCYLQDVAHVREALAEVRPTVMCAVPRFYEKIFSAIHEKVVKAPLVRKVLFTWAVNMGAKMAVCRQQQRQPSWMLKQSHQFADKLVLSKLRALLGGRINFMPCGGAKLDETIGRFFHAIGINVKLGYGMTETTATVSCWDDHCFNPDSIGLSMPGAQVKIGENNEILVRGPMVMRGYYKLDKETTESFDEQGFLKTGDAGHIDENGNLFITDRIKELMKTSGGKYIAPQVIEGAIGKDHFIEQIAVIADTRKFVSALIVPCFDSLEEYAKELNIKYHDRLELIKHSQVLEMFEKRVNELQKELAKFEQVKKFRLLPKAFSMDSGELTPTQKLRRKVINDRYQDEIEEMYQDSPKKEGHHHHHH | not soluble

Source: the DeepSol protein solubility set
